Results reported in the supplement of paper PMC10369915.
This is one part of the list. Rule as the data show it: active = 3.2 or more and inactive = the rest. Most of these values are background signal.

B1: TP53_Y220_V216E (peptide)
chain: SEVVPYEPPEV
B2: TP53_Y220_V216L (peptide)
chain: SLVVPYEPPEV
B3: TP53_Y220_V216M (peptide)
chain: SMVVPYEPPEV
B4: TP53_Y220_V217A (peptide)
chain: SVAVPYEPPEV
B5: TP53_Y220_V217G (peptide)
chain: SVGVPYEPPEV
B6: TP53_Y220_V217L (peptide)
chain: SVLVPYEPPEV
B7: TP53_Y220_V218E (peptide)
chain: SVVEPYEPPEV
B8: TP53_Y220_V218M (peptide)
chain: SVVMPYEPPEV
B9: TP53_Y220_V225F (peptide)
chain: SVVVPYEPPEF
B10: TP53_Y220_Y220D (peptide)
chain: SVVVPDEPPEV
B11: TP53_Y220_Y220N (peptide)
chain: SVVVPNEPPEV
B12: TP53_Y234_C229G (peptide)
chain: GTTIHYNYMCN
B13: TP53_Y234_C229G_YF (peptide)
chain: GTTIHYNFMCN
B14: TP53_Y234_C229Y (peptide)
chain: YTTIHYNYMCN
B15: TP53_Y234_C238G_YF (peptide)
chain: CTTIHYNFMGN
B16: TP53_Y234_C238R (peptide)
chain: CTTIHYNYMRN
B17: TP53_Y234_C238Y (peptide)
chain: CTTIHYNYMYN
B18: TP53_Y234_H233D (peptide)
chain: CTTIDYNYMCN
B19: TP53_Y234_H233D_YF (peptide)
chain: CTTIDYNFMCN

target: SHP2 C-SH2 domain E139D; experiment: enrichment score (SH2-bound / input frequency) (ratio); bacterial display of known human phosphotyrosine sites (pTyr-Var adds point mutants) read by sequencing; higher = stronger binding; tyrosines were phosphorylated by kinases first; details: peptide library: pTyr-Var
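Also: displayed peptides selected on beads carrying the immobilized SH2 domain, with library peptides lacking any tyrosine serving as negative controls.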

Enrichment score, inactive:
B1 0.705, B2 0.892, B3 0.788, B4 0.652, B5 0.835, B6 0.861, B7 0.586, B8 0.856, B9 0.885, B10 0.693, B11 0.74, B12 0.986, B13 1.16, B14 1.11, B15 1.88, B16 2.11, B17 1.81, B18 1.78, B19 2.84

target: SHP2 C-SH2 domain wild-type; experiment: as above; details: peptide library: pTyr-Var

Enrichment score, inactive:
B1 0.514, B2 0.976, B3 0.867, B4 0.745, B5 0.734, B6 0.83, B7 0.713, B8 0.768, B9 0.892, B10 0.663, B11 0.715, B12 1.17, B13 1.12, B14 1.74, B15 1.37, B16 2.1, B17 2.13, B18 1.79, B19 2.35

target: SHP2 N-SH2 domain L43F; experiment: as above; details: peptide library: pTyr-Var

Enrichment score, inactive:
B1 0.564, B2 0.81, B3 0.698, B4 0.935, B5 0.736, B6 0.992, B7 0.563, B8 0.946, B9 0.934, B10 0.503, B11 0.769, B12 0.77, B13 0.982, B14 1.35, B15 1.34, B16 1.88, B17 1.92, B18 1.93, B19 2.34

target: SHP2 N-SH2 domain T42A; experiment: as above; details: peptide library: pTyr-Var

Enrichment score, inactive:
B1 0.411, B2 0.839, B3 0.655, B4 0.735, B5 0.666, B6 0.699, B7 0.487, B8 0.782, B9 0.847, B10 0.583, B11 0.7, B12 0.951, B13 0.82, B14 2.03, B15 1.13, B16 1.53, B17 1.74, B18 1.6, B19 2.05

target: SHP2 N-SH2 domain T52S; experiment: as above; details: peptide library: pTyr-Var

Enrichment score, inactive:
B1 0.57, B2 0.913, B3 0.736, B4 0.769, B5 0.677, B6 0.97, B7 0.59, B8 0.716, B9 0.905, B10 0.614, B11 0.793, B12 0.668, B13 0.995, B14 1.35, B15 1.37, B16 1.92, B17 1.43, B18 1.79, B19 2.25

target: SHP2 N-SH2 domain wild-type; experiment: as above; details: peptide library: pTyr-Var

Enrichment score, inactive:
B1 0.591, B2 0.945, B3 0.759, B4 0.992, B5 0.717, B6 0.931, B7 0.671, B8 0.869, B9 0.839, B10 0.563, B11 0.852, B12 1.24, B13 1.25, B14 1.38, B15 1.67, B16 1.68, B17 1.97, B18 1.5, B19 2.17
